{"source": "paper PMC9911399", "about": "“Two distinct binding modes provide the RNA-binding protein RbFox with extraordinary sequence specificity”", "binders": {"B1": {"name": "AGUUGUC (DNA:RNA)", "RNA": "GGGAGACCGGAAUUCAGAUUGUCCAGUUGUCUUAAAUCCCGUCGUAGCCACCA", "DNA 1": "CAATCTGAATTCCGGTCTCCC", "DNA 2": "TGGTGGCTACGACGGGATT"}, "B2": {"name": "CAUUCGC (DNA:RNA)", "RNA": "B1 RNA with A25C, G26A, G29C, U30G", "DNA 1": "CAATCTGAATTCCGGTCTCCC", "DNA 2": "TGGTGGCTACGACGGGATT"}, "B3": {"name": "GGACGGG (DNA:RNA)", "RNA": "B1 RNA with A25G, U27A, U28C, U30G, C31G", "DNA 1": "CAATCTGAATTCCGGTCTCCC", "DNA 2": "TGGTGGCTACGACGGGATT"}, "B4": {"name": "UAACGCA (DNA:RNA)", "RNA": "B1 RNA with A25U, G26A, U27A, U28C, U30C, C31A", "DNA 1": "CAATCTGAATTCCGGTCTCCC", "DNA 2": "TGGTGGCTACGACGGGATT"}, "B5": {"name": "GUGUUAC (DNA:RNA)", "RNA": "B1 RNA with A25G, G26U, U27G, G29U, U30A", "DNA 1": "CAATCTGAATTCCGGTCTCCC", "DNA 2": "TGGTGGCTACGACGGGATT"}, "B6": {"name": "UGGCACG (DNA:RNA)", "RNA": "B1 RNA with A25U, U27G, U28C, G29A, U30C, C31G", "DNA 1": "CAATCTGAATTCCGGTCTCCC", "DNA 2": "TGGTGGCTACGACGGGATT"}, "B7": {"name": "AAAGGGU (DNA:RNA)", "RNA": "B1 RNA with G26A, U27A, U28G, U30G, C31U", "DNA 1": "CAATCTGAATTCCGGTCTCCC", "DNA 2": "TGGTGGCTACGACGGGATT"}, "B8": {"name": "UACCAGU (DNA:RNA)", "RNA": "GGGAGACCGGAAUUCAGAUUGUCCUACCAGUUUAAAUCCCGUCGUAGCCACCA", "DNA 1": "CAATCTGAATTCCGGTCTCCC", "DNA 2": "TGGTGGCTACGACGGGATT"}, "B9": {"name": "CCCAAGG (DNA:RNA)", "RNA": "B8 RNA with U25C, A26C, C28A, U31G", "DNA 1": "CAATCTGAATTCCGGTCTCCC", "DNA 2": "TGGTGGCTACGACGGGATT"}, "B10": {"name": "GGUAUCG (DNA:RNA)", "RNA": "B1 RNA with A25G, U28A, G29U, U30C, C31G", "DNA 1": "CAATCTGAATTCCGGTCTCCC", "DNA 2": "TGGTGGCTACGACGGGATT"}, "B11": {"name": "GAAUGUU (DNA:RNA)", "RNA": "B1 RNA with A25G, G26A, U27A, C31U", "DNA 1": "CAATCTGAATTCCGGTCTCCC", "DNA 2": "TGGTGGCTACGACGGGATT"}, "B12": {"name": "CGCAGUC (DNA:RNA)", "RNA": "B1 RNA with A25C, U27C, U28A", "DNA 1": "CAATCTGAATTCCGGTCTCCC", "DNA 2": "TGGTGGCTACGACGGGATT"}, "B13": {"name": "UCUUACG (DNA:RNA)", "RNA": "B1 RNA with A25U, G26C, G29A, U30C, C31G", "DNA 1": "CAATCTGAATTCCGGTCTCCC", "DNA 2": "TGGTGGCTACGACGGGATT"}, "B14": {"name": "GUUACCC (DNA:RNA)", "RNA": "B1 RNA with A25G, G26U, U28A, G29C, U30C", "DNA 1": "CAATCTGAATTCCGGTCTCCC", "DNA 2": "TGGTGGCTACGACGGGATT"}, "B15": {"name": "CUUAGAA (DNA:RNA)", "RNA": "B1 RNA with A25C, G26U, U28A, U30A, C31A", "DNA 1": "CAATCTGAATTCCGGTCTCCC", "DNA 2": "TGGTGGCTACGACGGGATT"}, "B16": {"name": "GGCGUGC (DNA:RNA)", "RNA": "B1 RNA with A25G, U27C, U28G, G29U, U30G", "DNA 1": "CAATCTGAATTCCGGTCTCCC", "DNA 2": "TGGTGGCTACGACGGGATT"}, "B17": {"name": "UUAUUUA (DNA:RNA)", "RNA": "B1 RNA with A25U, G26U, U27A, G29U, C31A", "DNA 1": "CAATCTGAATTCCGGTCTCCC", "DNA 2": "TGGTGGCTACGACGGGATT"}, "B18": {"name": "GGUAGUG (DNA:RNA)", "RNA": "B1 RNA with A25G, U28A, C31G", "DNA 1": "CAATCTGAATTCCGGTCTCCC", "DNA 2": "TGGTGGCTACGACGGGATT"}, "B19": {"name": "CUUUCGU (DNA:RNA)", "RNA": "B1 RNA with A25C, G26U, G29C, U30G, C31U", "DNA 1": "CAATCTGAATTCCGGTCTCCC", "DNA 2": "TGGTGGCTACGACGGGATT"}, "B20": {"name": "AGGUGUG (DNA:RNA)", "RNA": "B1 RNA with U27G, C31G", "DNA 1": "CAATCTGAATTCCGGTCTCCC", "DNA 2": "TGGTGGCTACGACGGGATT"}, "B21": {"name": "UCGUCAA (DNA:RNA)", "RNA": "B1 RNA with A25U, G26C, U27G, G29C, U30A, C31A", "DNA 1": "CAATCTGAATTCCGGTCTCCC", "DNA 2": "TGGTGGCTACGACGGGATT"}, "B22": {"name": "CCCAUGU (DNA:RNA)", "RNA": "B8 RNA with U25C, A26C, C28A, A29U", "DNA 1": "CAATCTGAATTCCGGTCTCCC", "DNA 2": "TGGTGGCTACGACGGGATT"}, "B23": {"name": "GGAGGGA (DNA:RNA)", "RNA": "B1 RNA with A25G, U27A, U28G, U30G, C31A", "DNA 1": "CAATCTGAATTCCGGTCTCCC", "DNA 2": "TGGTGGCTACGACGGGATT"}, "B24": {"name": "GAAUACG (DNA:RNA)", "RNA": "B8 RNA with U25G, C27A, C28U, G30C, U31G", "DNA 1": "CAATCTGAATTCCGGTCTCCC", "DNA 2": "TGGTGGCTACGACGGGATT"}, "B25": {"name": "UACGUCG (DNA:RNA)", "RNA": "B8 RNA with C28G, A29U, G30C, U31G", "DNA 1": "CAATCTGAATTCCGGTCTCCC", "DNA 2": "TGGTGGCTACGACGGGATT"}, "B26": {"name": "CUGGCCA (DNA:RNA)", "RNA": "GGGAGACCGGAAUUCAGAUUGUCCCUGGCCAUUAAAUCCCGUCGUAGCCACCA", "DNA 1": "CAATCTGAATTCCGGTCTCCC", "DNA 2": "TGGTGGCTACGACGGGATT"}, "B27": {"name": "UCGAGGC (DNA:RNA)", "RNA": "B1 RNA with A25U, G26C, U27G, U28A, U30G", "DNA 1": "CAATCTGAATTCCGGTCTCCC", "DNA 2": "TGGTGGCTACGACGGGATT"}, "B28": {"name": "CAGGUCA (DNA:RNA)", "RNA": "B26 RNA with U26A, C29U", "DNA 1": "CAATCTGAATTCCGGTCTCCC", "DNA 2": "TGGTGGCTACGACGGGATT"}, "B29": {"name": "CCCUGAG (DNA:RNA)", "RNA": "B1 RNA with A25C, G26C, U27C, U30A, C31G", "DNA 1": "CAATCTGAATTCCGGTCTCCC", "DNA 2": "TGGTGGCTACGACGGGATT"}, "B30": {"name": "AUAUAAC (DNA:RNA)", "RNA": "B1 RNA with G26U, U27A, G29A, U30A", "DNA 1": "CAATCTGAATTCCGGTCTCCC", "DNA 2": "TGGTGGCTACGACGGGATT"}, "B31": {"name": "GUUGACA (DNA:RNA)", "RNA": "B26 RNA with C25G, G27U, C29A", "DNA 1": "CAATCTGAATTCCGGTCTCCC", "DNA 2": "TGGTGGCTACGACGGGATT"}}, "note": "Numbering of substitutions follows the chain as printed; changes in the protein carry UniProt numbers. Some of the results follow.", "data": [{"molecular_target": "T1, RBFOX1 RRM RbFoxmut (Fox-RRM*) (Homo sapiens, UniProt Q9NWB1 109-208, R118D;E147R;N151S;E152T)", "T1 sequence": "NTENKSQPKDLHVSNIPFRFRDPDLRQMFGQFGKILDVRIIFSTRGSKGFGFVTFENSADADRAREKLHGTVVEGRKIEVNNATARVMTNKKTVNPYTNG", "assay": "EMSA; HiTS-Eq, 1 nM pool, 10 min; buffer printed only for the single-RNA assays: 10 mM Tris pH 7.5, 150 mM NaCl, 3.4 mM EDTA, 0.001% NP-40, 30 C", "conditions": "tags: His6 N-terminal (pET28a); label: 5' 32P", "in_short": "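Purified wild-type or mutant RbFox RRM at increasing concentrations was equilibrated with 1 nM of 5′-radiolabelled RNA carrying 7 randomized nucleotides for 10 min in 50 µL. Unbound RNA was separated by 8% native PAGE and sequenced. Relative association constants came from read-count changes of each RNA species compared with the control reaction, normalised to the cognate motif.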", "values": [{"binder": "B1", "binding signal": "0.292 KA relative to UGCAUGU"}, {"binder": "B2", "binding signal": "0.112 KA relative to UGCAUGU"}, {"binder": "B3", "binding signal": "0.061 KA relative to UGCAUGU"}, {"binder": "B4", "binding signal": "0.145 KA relative to UGCAUGU"}, {"binder": "B5", "binding signal": "0.112 KA relative to UGCAUGU"}, {"binder": "B6", "binding signal": "0.351 KA relative to UGCAUGU"}, {"binder": "B7", "binding signal": "0.0891 KA relative to UGCAUGU"}, {"binder": "B8", "binding signal": "0.0801 KA relative to UGCAUGU"}, {"binder": "B9", "binding signal": "0.0941 KA relative to UGCAUGU"}, {"binder": "B10", "binding signal": "0.348 KA relative to UGCAUGU"}, {"binder": "B11", "binding signal": "0.884 KA relative to UGCAUGU"}, {"binder": "B12", "binding signal": "0.0891 KA relative to UGCAUGU"}, {"binder": "B13", "binding signal": "0.0944 KA relative to UGCAUGU"}, {"binder": "B14", "binding signal": "0.0603 KA relative to UGCAUGU"}, {"binder": "B15", "binding signal": "0.14 KA relative to UGCAUGU"}, {"binder": "B16", "binding signal": "0.148 KA relative to UGCAUGU"}, {"binder": "B17", "binding signal": "0.107 KA relative to UGCAUGU"}, {"binder": "B18", "binding signal": "0.251 KA relative to UGCAUGU"}, {"binder": "B19", "binding signal": "0.0941 KA relative to UGCAUGU"}, {"binder": "B20", "binding signal": "0.332 KA relative to UGCAUGU"}, {"binder": "B21", "binding signal": "0.0917 KA relative to UGCAUGU"}, {"binder": "B22", "binding signal": "0.102 KA relative to UGCAUGU"}, {"binder": "B23", "binding signal": "0.0531 KA relative to UGCAUGU"}, {"binder": "B24", "binding signal": "0.135 KA relative to UGCAUGU"}, {"binder": "B25", "binding signal": "0.0931 KA relative to UGCAUGU"}, {"binder": "B26", "binding signal": "0.107 KA relative to UGCAUGU"}, {"binder": "B27", "binding signal": "0.104 KA relative to UGCAUGU"}, {"binder": "B28", "binding signal": "0.0978 KA relative to UGCAUGU"}, {"binder": "B29", "binding signal": "0.105 KA relative to UGCAUGU"}, {"binder": "B30", "binding signal": "0.0943 KA relative to UGCAUGU"}, {"binder": "B31", "binding signal": "0.0803 KA relative to UGCAUGU"}]}]}
